We go through 93 compounds from PubChem BioAssay AID1159614 (National Center for Advancing Translational Sciences (NCATS), 2016).

Each structure is given as a SMILES string. Among all 45,000 compounds or so, about 65 (0.1%) were called active. Calls come from the whole dose curve; as a rule, active = well fitted activation curve with a large enough effect; inconclusive = small, poorly fitted or top-dose-only effect; inactive = no such curve, though single readings can be large or run the other way. The list shows a part of the results.

UniProt P54803, sequence (P54803 whole entry, looked up): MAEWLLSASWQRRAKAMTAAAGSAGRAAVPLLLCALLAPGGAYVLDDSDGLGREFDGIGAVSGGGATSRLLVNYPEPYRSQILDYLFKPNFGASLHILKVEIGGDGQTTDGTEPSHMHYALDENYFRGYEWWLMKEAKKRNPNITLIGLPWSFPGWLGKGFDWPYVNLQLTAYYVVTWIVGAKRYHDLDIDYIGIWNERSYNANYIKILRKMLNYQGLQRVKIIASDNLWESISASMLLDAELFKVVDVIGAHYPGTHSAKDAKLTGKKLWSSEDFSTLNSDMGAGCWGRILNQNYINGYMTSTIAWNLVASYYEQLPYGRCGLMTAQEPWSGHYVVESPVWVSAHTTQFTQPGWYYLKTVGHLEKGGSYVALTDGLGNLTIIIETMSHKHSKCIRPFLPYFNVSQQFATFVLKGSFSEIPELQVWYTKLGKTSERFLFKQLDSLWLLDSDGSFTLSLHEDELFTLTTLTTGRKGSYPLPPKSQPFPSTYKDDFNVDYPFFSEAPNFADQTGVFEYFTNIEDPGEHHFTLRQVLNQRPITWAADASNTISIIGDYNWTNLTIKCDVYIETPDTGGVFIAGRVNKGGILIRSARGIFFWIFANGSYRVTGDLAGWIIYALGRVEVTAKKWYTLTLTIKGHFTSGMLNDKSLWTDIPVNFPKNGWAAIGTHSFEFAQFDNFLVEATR

The target of the assay is Galactocerebrosidase (Homo sapiens) (UniProt P54803). Nature of the assay: A Novel Cell-Based Assay to Identify Small Molecules for B -Galactocerebrosidase. Note: 0% is about no effect; nearly all actives have a fitted effect of over 65% in size. The settings on record: 145M-Twi-hGALC-G270D cells (Twitcher mouse brain line with human GALC G270D), HMU-beta-Gal fluorescence, 48 h; series mostly up to 57.5 µM; activation: at the top concentration. The gist of the method:
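Live 145M-Twi cells (Twitcher mouse brain-derived, GALC-null) stably expressing human GALC-G270D, with a wild-type GALC line, were compound-treated. Residual GALC activity was then read as fluorescence from 0.1 mM final HMU-β-gal at pH 5.2; higher signal means activation.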
`Cc1nn(-c2ccccc2)c2c1cc1c(=O)n(C)c(=O)nc-1n2-c1cccc(Cl)c1`: the “activation” value is inactive: -13.4%.
As to `Oc1ccc(-c2nc(-c3ccccc3)c(-c3ccc(Br)cc3)[nH]2)cc1`, the “activation” value was inactive: 8.7%.
For `CN(C)CC/C=C1/c2ccccc2COc2ccc(CC(=O)O)cc21` the value was inactive: -7.45%.
For `CCc1c(C)sc2c1CCN(C(=O)Nc1cc(C)cc(C)c1)C2c1ccccc1` (stereo not drawn) the value was inactive: -14.5%; for `COc1ccc(CNC(=O)CN2C(=O)COc3ccc(S(=O)(=O)N4CCC(C)CC4)cc32)cc1`, inactive: -15.4%; for `COc1ccc(CCNC(=O)c2oc(=O)c3ccccc3c2-c2ccccc2)cc1OC`, inactive: -12%.
The result for `Cc1ccc(NC(=O)Cn2c(=O)n(CCCCC(=O)NCCc3ccc(Cl)cc3)c(=O)c3ccccc32)cc1` reads inactive: -13.2%; that for `COCCCN1C(=O)c2[nH]nc(-c3ccccc3O)c2C1c1ccc(OCc2ccccc2)cc1` (stereo not drawn), inactive: -16.7%.
For the compound `COC(=O)c1sc(N2C(=O)c3oc4ccccc4c(=O)c3C2c2ccc(O)cc2)nc1C` (stereo not drawn), the “activation” value is inactive: -5.46%.
For `COc1cc(NC(=O)CCS(=O)(=O)c2nc(-c3ccc4c(c3)OCO4)cc(C(F)(F)F)n2)cc(OC)c1OC` the value was inactive: -12.7%.
Take `CCCCNC(=O)C1CCC(CNS(=O)(=O)c2ccc(C)cc2)CC1` (stereo not drawn): the “activation” value was inactive: -15.4%.
For `Cc1nc(NC(=O)c2c(-c3ccccc3)c(-c3ccccc3)nn(C)c2=O)sc1C` the value was inactive: -3.37%; for `COCCCNC(=O)CSc1nc2cc3c(cc2c(=O)n1CCCCCC(=O)NCc1ccc2c(c1)OCO2)OCO3`, inactive: -3.69%.
The result for `Cc1cccc(NC(=O)c2sc3nc4c(cc3c2N)CN(C(C)C)CC4)c1` reads inactive: -8.06%; that for `CCc1ccc(S(=O)(=O)Nc2ccc3[nH]c(=O)sc3c2)cc1`, inactive: -17.4%.
Turning to `CCC1CCCCN1C(=O)CSc1nc(-c2ccc(OC)c(OC)c2)cc(C(F)(F)F)n1` (stereo not drawn), the “activation” value is inactive: -12.7%.
For `CC1=C(C(=O)OC2CCCCCC2)C(c2cccc(F)c2F)CC(=O)N1` (stereo not drawn) the value was inactive: 9.54%; for `Cc1cccc(N2CCN(C(=O)CN3C(=O)COc4ccc(S(=O)(=O)N5CCOCC5)cc43)CC2)c1C`, inactive: -5.64%.
The result for `CC(=O)N1CCc2cc(Br)cc(S(=O)(=O)CCC(=O)N3CCN(c4ccccc4)CC3)c21` reads inactive: -4.86%.
On to `Cc1nc2cc(C(=O)NC3CCCCCC3)ccc2n1-c1ccc(Br)cc1`, for which the “activation” value is inactive: -23.2%.
Regarding `COc1cc(NC(=O)CCCc2nnc3n(CC(C)C)c(=O)c4sccc4n23)cc(OC)c1`, the “activation” value is inactive: -6.4%.
With `Cc1ccc(Cn2c(SCC(=O)NCc3ccccc3Cl)nc3ccsc3c2=O)cc1`, the “activation” value was inactive: -16.2%.
The result for `Fc1ccc(Nc2nc(SCc3ccccc3F)nc3ccccc23)cc1` reads inactive: -14.9%.
For `CCOC(=O)c1cc2c(=O)n3ccccc3nc2n(Cc2ccco2)c1=NC(=O)c1cccc(F)c1` the value was inactive: -3.45%.
The result for `Cc1cc([N+](=O)[O-])ccc1NC(c1nnc(-c2ccccc2)o1)c1ccccc1F` (stereo not drawn) reads inactive: -6.77%; that for `CN(C)S(=O)(=O)c1ccc2c(c1)N(CC(=O)Nc1ccc(F)cc1)C(=O)CS2`, inactive: -16.2%; that for `CC(C)c1ccc(NS(=O)(=O)c2ccc3[nH]cc(C(=O)NCC4CCCO4)c(=O)c3c2)cc1` (stereo not drawn), inactive: -11.2%.
In the case of `Cc1cc(-c2ccc(C)c(S(=O)(=O)NCCc3ccc(S(N)(=O)=O)cc3)c2)on1`, the “activation” value was inactive: 4.57%.
The result for `CCOc1ccc2nc(N3CCCC(C(=O)Nc4ccc(OC)c(Cl)c4)C3)sc2c1` (stereo not drawn) reads inactive: -6.58%; that for `CN(C)c1ccc(-c2nnc3n(Cc4ccccc4)c(=O)c4ccccc4n23)cc1`, inactive: -17.6%; that for `c1ccc(CN(CC2=NCCN2)c2ccccc2)cc1`, inactive: -12.6%.
For `CC(=O)c1cccc(NC(=O)Cn2c(=O)oc3cc(S(=O)(=O)N4CCCC4)ccc32)c1` the value was inactive: -2.37%; for `CCOc1ccc(CCNC(=O)CN2C(=O)COc3ccc(S(=O)(=O)N4CCCCCC4)cc32)cc1`, inactive: -12.7%.
The result for `CCC(=O)C1=C(c2ccc(OC)c(OC)c2)N(C(=O)CC)n2c(CC)nnc2S1` reads inactive: -12.2%.
For `Cc1ccc(NC(=O)c2c(NC(=O)Cc3ccccc3)sc3c2CCCC3)cc1`, the “activation” value was inactive: -9.31%.
The result for `CC(=O)Nc1ccc(NC(=O)CCSCCc2ccccn2)cc1` reads inactive: -30.3%; that for `Cc1ccc2oc(=O)c3cc(C(=O)N4CCN(c5ccccc5F)CC4)sc3c2c1`, inactive: -3.54%; that for `O=S(=O)(Nc1cc(F)ccc1F)c1ccc2[nH]c3c(c2c1)CCCCC3`, inactive: -11.8%.
For `CC(C)(C)c1ccc(Oc2ccc(NC(=O)CCC(=O)OCC(=O)c3ccccc3)cc2)cc1` the value was inactive: -10.7%; for `CN(C)c1ccc(CNC(=O)c2ccc(NC(=O)N3CCCCc4ccccc43)cc2)cc1`, inactive: -7.44%.
For `COc1ccc(-n2c(SCC(=O)Nc3cccc(C)c3C)nc3c([nH]c4ccccc43)c2=O)cc1` the value was inactive: -6.27%; for `N#Cc1c(-n2ncnc2-c2cccc(Br)c2)sc2c1CCCCC2`, inactive: -11.9%; for `CCc1ccccc1NC(=O)C1CCN(c2cnccn2)CC1`, inactive: -11%.
In the case of `Cc1ccc(Cl)cc1N1CCN(C(=O)CCCn2c(=O)[nH]c3ccc(Br)cc3c2=O)CC1`, the “activation” value was inactive: -1.51%.
The result for `CC(C)CCn1nnc2sc(-c3ccccc3)cc2c1=O` reads inactive: -3.8%.
For `O=C(NCCS(=O)(=O)N1CCN(c2ccc(F)cc2)CC1)c1cccc(C(F)(F)F)c1` the value was inactive: -4.63%; for `CCCCSCCCNC(=O)c1cn(C)c2ccc(S(=O)(=O)N3CCCCCC3)cc2c1=O`, inactive: -6.35%; for `CC(C)Oc1cccc(C2CC(=O)Nc3cc4c(cc32)OCO4)c1` (stereo not drawn), inactive: -9.34%.
For `CC(=O)c1ccc(Nc2ccc3cc(S(=O)(=O)N4CCCC4)ccc3n2)cc1` the value was inactive: -2.46%; for `O=C(CCn1cnnn1)Nc1cc(C(F)(F)F)cc(C(F)(F)F)c1`, inactive: -2.8%.
Regarding `CC(=O)c1nnn(-c2ccc(C)cc2Cl)c1C`, the “activation” value was inactive: -9.81%.
The result for `COc1ccc2c(c1)c1c(c(=O)n(-c3ccc(OC)c(OC)c3)c(=O)n1Cc1ccccc1F)n2C` reads inactive: -9.56%; that for `COc1cc(NC(=O)CSc2nccn2C)cc(OC)c1OC`, inactive: -22.8%; that for `COc1cc(OC)c(NC(=O)c2nn(-c3ccc(C)cc3)c(=O)c3c2c2ccccc2n3C)cc1Cl`, inactive: -7.37%.
`O=C(Nc1cccc(C(=O)N2CCN(c3cccc(Cl)c3)CC2)c1)c1nsc2ccccc12`: the “activation” value was inactive: -11.7%.
The result for `CCOc1ccc(C2c3c(oc4ccc(C)cc4c3=O)C(=O)N2CCCN(C)C)cc1` (stereo not drawn) reads inactive: -0.184%; that for `CSc1ccc(CCNC(=O)C(C)n2nc(C)c3sc4ccccc4c3c2=O)cc1` (stereo not drawn), inactive: -11%; that for `CCOC(=O)C1CCN(C(=O)c2ccc(NC(=O)c3nsc4ccccc34)cc2)CC1`, inactive: -20.2%.
Turning to `O=C(NCc1ccccc1Cl)c1ccc(Cn2c(SCc3ccccc3)nc3cccnc32)cc1`, the “activation” value is inactive: -11.4%.
The result for `Cc1ccccc1Cn1c2ccccc2c2cnn(CC(=O)NCC(C)c3ccccc3)c(=O)c21` (stereo not drawn) reads inactive: -7.5%; that for `CCc1ccccc1NC(=O)c1ccc2c(SCC(=O)O)c3c(nc2c1)CCC3`, inactive: 4.7%.
With `Cc1c(C)n(Cc2ccccc2)c2ccc(C(=O)OCCN(C)C)cc12`, the “activation” value was inactive: -7.89%.
The result for `Cc1cc(C(=O)NCc2cccc(Br)c2)c2c(C)nn(-c3ccccc3)c2n1` reads inactive: -2.07%; that for `CC(=O)N1c2ccc(S(=O)(=O)NCC3CCC(C(=O)Nc4ccc(C)c(C)c4)CC3)cc2CC1C` (stereo not drawn), inactive: 5.32%; that for `Cc1ccc(NC(=O)c2ccc(CNS(=O)(=O)c3ccc4c(c3)C(C)(C)C(=O)N4C)cc2)cc1C`, inactive: -3.83%.
The result for `O=C(CCn1ccc2cc(S(=O)(=O)N3CCCC3)ccc21)NCc1cccc(Cl)c1` reads inactive: -3.6%; that for `Cc1cc(C)c2c(-n3cccc3)c(C(=O)NCc3cccc(F)c3)sc2n1`, inactive: -26.4%; that for `CCOc1ccc(NC(=O)c2nc3nc(C)cc(C(F)F)n3n2)cc1`, inactive: -14.1%.
For `CCc1nnc(SCc2ccc(OC)cc2)c2cc3sc(C)cc3n12` the value was inactive: -6.21%; for `COc1cc(CCNC(=O)c2ccc3c(c2)c(C)c(C)n3Cc2cccc(C)c2)cc(OC)c1OC`, inactive: -7.08%; for `COc1ccc(OC)c(Nc2ncnc3c2nc2n3CCCC2)c1`, inactive: -6.43%.
As to `COCCCn1c(=N)c(C(=O)NCc2cccnc2)cc2c(=O)n3cc(C)ccc3nc21`, the “activation” value is inactive: -3.99%.
Consider `CC(=O)N(CC(O)CN(C(C)=O)c1c(I)c(C(=O)NCC(O)CO)c(I)c(C(=O)NCC(O)CO)c1I)c1c(I)c(C(=O)NCC(O)CO)c(I)c(C(=O)NCC(O)CO)c1I` (stereo not drawn), for which the “activation” value was inactive: -8%.
Take `CCOc1ccccc1CNCc1c(C(=O)O)n(Cc2ccc(F)cc2)c2cc(C)ccc12`: the “activation” value was inactive: -7.82%.
As for `CC(=O)c1ccc(N2CCN(C(=O)CCn3cnc4onc(-c5ccc(F)cc5)c4c3=O)CC2)cc1`, the “activation” value is inactive: -12.2%.
The result for `CCOc1ccccc1NC(=O)Nc1cc2c(cc1N1CCCCC1)n(CC)c(=O)n2CC` reads inactive: -12.8%.
For `CCOC(=O)c1ccc(NC(=O)CSc2nccn2-c2cc(C)cc(C)c2)cc1` the value was inactive: -16.1%; for `O=C1CC(c2ccc(F)cc2)c2c(c3ccccc3[nH]c2=O)O1` (stereo not drawn), inactive: -11.8%.
The result for `Cc1cc(C)cc(NC(=O)CNS(=O)(=O)c2ccc3nc(C)sc3c2)c1` reads inactive: 9.79%; that for `CCn1cc(C(=O)NCCc2ccc(C)cc2)c(=O)c2cc(S(=O)(=O)N3CCc4ccccc4C3)ccc21`, inactive: -16.3%.
As for `O=C(Nc1c(-c2ccccc2)nc2ccccn12)c1ccccc1F`, the “activation” value is inactive: 1.99%.
On to `Cc1ccc(-c2noc(-c3cc(-c4ccc(F)cc4)n[nH]3)n2)cc1`, for which the “activation” value was inactive: -21.8%.
The result for `Cc1ccc(NC(=O)CN2C(=O)c3ccccc3Sc3ccc(C(=O)N4CCOCC4)cc32)c(Cl)c1` reads inactive: 3.18%.
The result for `CCN(C(=O)C1CCCN(c2ncnc3c2nc2n3CCCCC2)C1)c1cccc(C)c1` (stereo not drawn) reads inactive: -12.5%; that for `CCOc1ccc(OC(=O)c2c(-c3ccccc3Cl)noc2C)cc1`, inactive: -6.64%; that for `CN1C(=O)Cc2cc(S(=O)(=O)CCC(=O)Nc3ccc(OC(F)(F)F)cc3)ccc21`, inactive: 5.51%.
The result for `CCc1cc2c(cc3c(=O)n(CC(=O)NCc4cc(Br)ccc4OC)ncn32)s1` reads inactive: -7.25%; that for `CCN(CC)S(=O)(=O)c1ccc2oc(C(=O)Nc3cc(C)ccc3OC)c(C)c2c1`, inactive: -4.01%; that for `COC(=O)CNC(=O)N1CCN(S(=O)(=O)c2ccc3c(ccn3C)c2)CC1`, inactive: -1.66%.
Turning to `CCOc1ccc(-c2nnc(SCC(=O)c3ccccc3)n2-c2ccccc2)cc1`, the “activation” value was inactive: -4.69%.
With `Cn1cccc1-c1cc2n(n1)CCC(=O)N2CCCC(=O)NCc1ccc(F)cc1`, the “activation” value was inactive: -18.2%.
For `COc1ccc(C(=O)Nc2ccc3oc(-c4ccc5ccccc5c4)nc3c2)cc1Br` the value was inactive: 1.64%; for `CCCCNC(=O)CN1C(=O)COc2ccc(S(=O)(=O)N3CCCCCC3)cc21`, inactive: -12.7%.
